These results are taken from PubChem BioAssay AID1346428 (National Center for Advancing Translational Sciences (NCATS), 2018).

Several values for one entry are separate records, joined by “and”; a condition that tells them apart may be missing. Identical values can stand only once. The whole screen tested about 48,000 compounds, of which about 1,200 (2.5%) were called active. Another 2% or so got no clear call; they are omitted.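 Rule for the calls: active = activation of at least 60% and not above a set upper limit (about 1 call in 100 departs from these limits); inconclusive = activation of 40% to 60%, or above that upper limit; inactive = activation under 40%.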 The list shows a part of the results.

UniProt O75388, sequence (O75388 whole entry, looked up): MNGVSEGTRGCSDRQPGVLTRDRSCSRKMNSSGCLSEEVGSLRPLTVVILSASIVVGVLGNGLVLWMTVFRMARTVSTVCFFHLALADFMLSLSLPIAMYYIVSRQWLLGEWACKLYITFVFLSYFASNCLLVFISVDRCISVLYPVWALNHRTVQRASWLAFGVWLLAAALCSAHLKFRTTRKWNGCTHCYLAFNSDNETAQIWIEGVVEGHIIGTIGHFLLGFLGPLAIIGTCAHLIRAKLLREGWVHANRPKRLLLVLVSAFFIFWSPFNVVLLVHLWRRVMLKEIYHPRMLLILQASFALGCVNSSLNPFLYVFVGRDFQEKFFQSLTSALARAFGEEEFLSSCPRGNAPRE

The test concerns the target Probable G-protein coupled receptor 32 (Homo sapiens) (UniProt O75388). Briefly: qHTS for Agonists of Human Resolvin D1 Receptor DRV1. Note: 0% is about no effect. To be noted: CHO-K1 GPR32 beta-arrestin PathHunter luminescence, 90 min; at 76.9 µM; stronger effect = higher value; zero percent set by DMSO-only wells. The essentials:
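Luminescent readout of beta-Gal complementation quantifies ligand-induced beta-arrestin association with GPR32 in CHO-K1 cells; 90 min compound incubation at 37 °C, detection 1 h at room temperature.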
(In qHTS, concentration-response curves come from the screen itself.)
In the case of `O=C(Cn1c(-c2cccs2)cc2cc(F)ccc21)N1CCN(c2cccc(Cl)c2)CC1`, the activation was inactive: 0.785%.
Regarding `COc1cccc(Cc2nc3ccccc3nc2SCC(=O)N2CCN(c3ccccc3)CC2)c1`, the activation was inactive: -30.3%.
The figure for `Cc1ccccc1Cn1c2ccccc2c2cnn(CC(=O)NCCCc3ccccc3)c(=O)c21` is inactive: 29.3%.
With `COc1cccc2c1cc1c(=O)n(CC(=O)O)nc(C)n12` the figure was inactive: -6.89%.
With `CCOc1ccc(-c2c(C)nn3c(C)c(C(=O)NCCc4ccccc4)cnc23)cc1OCC` the figure was inactive: 19.9%; with `COc1ccc2c(c1)c1c(c(=O)n(-c3ccc(F)c(Cl)c3)c(=O)n1CC(N)=O)n2C`, inactive: -12.3%.
On to `CC(=O)Nc1ccc(S(=O)(=O)NC2(C(F)(F)F)NC(=O)N(c3ccccc3F)C2=O)cc1` (stereo not drawn), for which the activation is inactive: -7.56%.
With `CCC1CN(C(=O)Nc2cccc(OC)c2)c2ccccc2O1` (stereo not drawn) the figure was inactive: -30.7%; with `Cn1nc(C(=O)N2CCN(c3ccc(Cl)cc3)CC2)c2c1-c1ccccc1S(=O)(=O)C2`, inactive: -4.91%; with `COc1ccccc1CNC(=O)CSc1cc(=O)n(C)c2ccccc12`, inactive: 7.21%.
With `COc1ccc(-c2cc(C(F)(F)F)nc(NCc3ccc(Cl)cc3)n2)cc1` the figure was inactive: -7.88%; with `CCOc1ccc(Nc2sc(C(=O)c3ccc4c(c3)OCO4)c(N)c2S(=O)(=O)c2ccc(C)cc2)cc1`, inactive: -5.84%.
With `NC1C=CC=C(C(=O)O)C1` (stereo not drawn) the figure was inactive: -0.509%; with `O=C1CC(c2nnc(Cc3cccc(Cl)c3)o2)CN1c1ccccc1` (stereo not drawn), inactive: -4.86%.
As for `CCOc1ccc(C2C(C(=O)Nc3ccccc3OC)=C(C)Nc3c(C(=O)Nc4cccc(C)c4)cnn32)cc1` (stereo not drawn), the activation was inactive: -13.6%.
With `CC1CCCCN1S(=O)(=O)c1cc2c(=O)nc3ccccn3c2cc1Cl` (stereo not drawn) the figure was inactive: 17.4%; with `CC(C)(Sc1ccc(CCN(CCCCC2CCCCC2)C(=O)NC2CCCCC2)cc1)C(=O)O`, inactive: -6.14%; with `COc1cccc(-c2cc(C(=O)Nc3ccc(Br)c(C)c3)[nH]n2)c1`, inactive: -1.83%.
The figure for `Cc1ccc2c(c1)cc1c(=O)n(Cc3ccc(Cl)cc3)nc(C)n12` is inactive: -15.2%; for `COc1ccc(-n2c(=O)c3ccc(C(=O)NCc4ccc(C)cc4)cc3n(Cc3cccc(Cl)c3)c2=O)cc1` it is inactive: -1.91%; for `COc1ccc(CN(Cc2ccco2)C(=O)c2ccccc2F)cc1` it is inactive: -21%.
The figure for `CCn1c(CC2C(=O)Nc3ccccc32)nc2ccccc2c1=O` (stereo not drawn) is inactive: -37.3%; for `Cc1cccc(C)c1NS(=O)(=O)c1ccc2c(c1)[C@H]1C=CC[C@H]1[C@@H](c1ccc(Cl)cc1)N2` it is inactive: -16.4%; for `CCOc1ccccc1NC(=O)Cn1c(=O)n(-c2ccccc2)c(=O)c2c1c1cc(C)ccc1n2C` it is inactive: -2.74%.
As for `COc1ccc(NC(=O)CN2C(=O)CCc3cc(S(=O)(=O)N4CCOCC4)ccc32)c(OC)c1`, the activation is inactive: -34.4%.
In the case of `COc1ccc(-c2cn3c(n2)sc2cc(C(=O)NCCCN4CCCCC4)ccc23)cc1`, the activation was inactive: -9.13%.
Consider `CCCS(=O)c1ccc2nc(NC(=O)OC)[nH]c2c1` (stereo not drawn), for which the activation was inactive: -22.9%.
The figure for `CCN(C(=O)CSc1nnc(-c2cc3occc3n2C)n1-c1ccccc1C)c1cccc(C)c1` is inactive: -15.8%; for `CCc1ccc(CNC(=O)CSc2cc(=O)n(CC)c3ccccc23)cc1` it is active: 60.5%.
With `CCNC(=O)c1c(C)oc2ncn(C)c(=O)c12` the figure was inactive: -1.82%; with `CCN(CC)C(=O)c1cnn(-c2ccc(F)cc2)c1-n1cccc1`, inactive: -1.81%.
With `COc1ccc(N2CCN(C(=O)c3ccc4c(=O)n(CCc5ccc(OC)c(OC)c5)c(=O)[nH]c4c3)CC2)cc1` the figure was inactive: -2.68%.
For the compound `CCc1nn(CC(=O)N(CC)Cc2ccccc2)c(=O)c2cc3occc3n12`, the activation is inactive: 1.25%.
With `Cc1nn(CCCC(=O)Nc2cc(C(F)(F)F)ccc2Cl)c(=O)c2c1sc1ccccc12` the figure was inactive: -4.19%.
On to `CC(=O)O[C@@H]1C(=O)O[C@@H]2[C@H]1OC(=O)[C@@H]2OC(C)=O`, for which the activation is inactive: -9.43%.
With `Clc1ccc2nc(Nc3ccccc3Cl)nc(-c3ccccc3)c2c1` the figure was inactive: -9.83%; with `CCOc1ccc(-n2c(=O)c3c4c(sc3n(Cc3cccc(C)c3)c2=O)CCCC4)cc1`, inactive: 30.5%.
With `CCc1ccc(NS(=O)(=O)c2ccc3[nH]cc(C(=O)NCc4ccc(C)cc4)c(=O)c3c2)cc1` the figure was inactive: 16.2%.
With `CCOCCCNC(=O)C1CCN(c2cc(C)nc3c(-c4ccc(Cl)cc4)c(C)nn23)CC1` the figure was inactive: -10.5%; with `CCc1ccc(NCc2cc3cc4c(cc3n(CC(=O)Nc3ccccc3Cl)c2=O)OCO4)cc1`, inactive: -16.5%.
Take `Cc1ccc(-c2cn3c(n2)sc2cc(C(=O)NC4CCCc5ccccc54)ccc23)cc1` (stereo not drawn): the activation is inactive: -7.78%.
With `Cc1ccc(NC(=O)c2cc3c(-c4ccccc4)nn(-c4ccccc4)c3s2)cc1` the figure was inactive: -11.4%.
The figure for `O=C(Nc1ccc(Br)cc1F)C(NS(=O)(=O)c1cccc2nsnc12)c1ccccc1` (stereo not drawn) is inactive: -17.9%; for `CCOc1ccccc1NC(=O)Nc1cc(C(=O)NCc2ccc(C)cc2)ccc1N1CCCC1` it is inactive: -18.3%.
With `COc1ccc(OC)c(NC(=O)c2c(NCc3ccc(OC)c(OC)c3)sc3c2CCC3)c1` the figure was inactive: -18.2%.
Regarding `CC1=C(/C=C/C(C)=C/C=C/C(C)=C\C(=O)O)C(C)(C)CCC1`, the activation was inactive: -8.05%.
With `CC/C(=C(/CC)c1ccc(O)cc1)c1ccc(O)cc1` the figure was inactive: 37.3%; with `COc1ccc(CNC(=O)c2cc3c(-c4ccccc4F)nn(C)c3s2)cc1`, inactive: -4.77%; with `COc1ccc(NC(=O)Cn2c(=O)n(CC(=O)NCCc3ccccc3)c(=O)c3ccccc32)cc1`, inactive: -5.81%.
For the compound `COc1ccccc1NC(=O)CSc1cn(CC(=O)N2CCCC2)c2ccccc12`, the activation is inactive: -16.6%.
For the compound `CC(=O)c1cccc(NC(=O)CCc2c(C)nc3nc(CN)nn3c2C)c1`, the activation was inactive: -7.45%.
On to `CC(=O)N1CCc2c(sc3c2c(=O)n(-c2ccccc2Cl)c(=O)n3Cc2cccc(C)c2)C1`, for which the activation is inactive: 4.91%.
With `CCOC(=O)N1CCN(Cc2nc3cc(NC(=O)c4ccccc4Cl)ccc3n2C(C)C)CC1` the figure was inactive: -6.3%; with `O=C(Cn1cc(S(=O)(=O)N2CCCC2)c(S(=O)(=O)N2CCCC2)c1)Nc1ccc(F)cc1`, inactive: -11.6%; with `Cc1ccc2nc(-c3cccs3)c(Nc3ccc4c(c3)OCCO4)n2c1`, inactive: -17.8%.
With `Cc1cc(-c2ccccc2)nnc1NCCN1CCOCC1` the figure was inactive: 1.09%; with `CCOC(=O)c1ccc(NC(=O)N2CC3CCCN3c3ccccc32)cc1` (stereo not drawn), inactive: -17.2%; with `CCC1CCCCN1C(=O)CSc1nnc(-c2ccc(OC)c(OC)c2)o1` (stereo not drawn), inactive: -9.42%.
The figure for `CCC(=O)N1CCc2cc(S(=O)(=O)NCc3ccc(C)cc3)ccc21` is inactive: 18.4%; for `COc1ccc(Cl)cc1Nc1ccc2cc(S(=O)(=O)N3CCCCC3)ccc2n1` it is inactive: -13.6%.
Consider `COc1ccccc1NC(=O)C1=C(C)Nc2nc3ccccc3n2C1c1ccccc1Cl` (stereo not drawn), for which the activation was inactive: 4.02%.
The figure for `CN(C)c1ncc(C(=O)NCc2ccc(Cl)cc2)cn1` is inactive: 23%; for `CCOc1ccc(NC(=O)c2ccc(F)c(S(=O)(=O)N(Cc3ccc(C(=O)OC)cc3)Cc3ccc(OC)c(OC)c3)c2)cc1` it is inactive: -20.7%.
The figure for `O=C(Cn1cc(C(=O)c2ccco2)c2ccccc21)Nc1ccccc1` is inactive: -7.47%; for `CCOc1ccc(N2CC(C)Cn3c2nc2c3c(=O)n(Cc3c(F)cccc3Cl)c(=O)n2C)cc1` (stereo not drawn) it is inactive: -6.85%; for `Cc1ccc(-c2nnn3c2nc(NC2CCC(C)CC2)c2ccccc23)cc1` (stereo not drawn) it is inactive: 4.68%.
Consider `O=C(CSc1ncc(-c2ccccc2)[nH]1)Nc1cccc(Br)c1`, for which the activation was inactive: 4.33%.
For the compound `Cc1cc(OCC(=O)N2CCC(c3nc4ccccc4s3)CC2)ccc1Cl`, the activation was active: 78%.
The figure for `NC(N)=Nc1nc(CSCC/C(N)=N/S(N)(=O)=O)cs1` is inactive: -11.6% and inactive: 6.07%; for `Cc1cc2n(n1)CCCN2C(=O)Nc1ccc(F)c(Cl)c1` it is inactive: 3.57%; for `CCOCCc1nnc(NC(=O)C(=O)c2cc(C)n(-c3ccc(Cl)cc3)c2C)s1` it is inactive: 25%.
The figure for `Cc1ccc(S(=O)(=O)c2cnc(SCC(=O)Nc3ccc4c(c3)OCCO4)[nH]c2=O)cc1C` is inactive: 14.8%; for `COC(=O)CN1C(C(=O)c2ccccc2)=C(OC(=O)c2ccc(F)cc2)c2ccccc2S1(=O)=O` it is inactive: -5.48%.
The figure for `CCN(CCCNC(=O)c1cc2c(=O)n(CC)c3ccccc3c2s1)Cc1ccccc1` is inactive: -13.3%.
`CC1CCCCN1C(=O)c1ccc2c(c1)N(Cc1ccc(F)cc1)C(=O)c1ccccc1S2(=O)=O` (stereo not drawn): the activation is inactive: -9.32%.
With `COc1cccc(-c2nc3c(C#N)c[nH]n3c2NC2CCCC2)c1OC` the figure was inactive: -33.9%; with `COc1cccc(-n2c(C)nc3cc(C(=O)O)ccc32)c1`, inactive: 19.6%.
Take `COc1cc2nc(NC(=O)c3ccc(S(=O)(=O)N4CCc5ccccc54)cc3)sc2cc1OC`: the activation was inactive: -62.4%.
For `CC1CCN(c2oc(-c3cccs3)nc2S(=O)(=O)c2ccccc2)CC1`, the activation is inactive: -6.38%.
In the case of `CCOc1ccc(CNC(=O)C2CCN(c3nc4ccccc4nc3C(F)(F)F)CC2)cc1OC`, the activation is inactive: -1.75%.
With `CCc1c(C)sc2c1CCN(Cc1ccccc1C#N)C2c1ccccc1` (stereo not drawn), the activation was inactive: -0.0302%.
With `COc1ccc(CCNC(=O)c2cnc3sc(N4CCOCC4)nn3c2=O)cc1` the figure was inactive: 3.91%; with `CCOC(=O)c1cnc2c(ccc3ccccc32)c1Nc1cccc(Cl)c1`, inactive: -5.74%.
